# Measured values published in the supplement of paper PMC8728848.
# The list shows a part of the results.
# B1: AAL (Agrocybe aegerita), Q6WY08 (protein)
# chain: MQGVNIYNISAGTSVDLAAPVTTGDIVTFFSSALNLNAGAGNPNNTTLNLFAENGAYLLHIAFRLQENVIIFNSRQPDGPWLVEQRVSDVANQFAGIDGKAMVTVFDHGDKYQVVINEKTVIQYTKQISGLTLSLSYNATEETSIFSTVVEAVTYTGLALEHHHHHH
# How the values were obtained:
# Experiment in all cases: glycan array binding signal (z-score within array); higher = stronger binding
# Conditions in all cases: glycan notation: IUPAC condensed, linker removed
# [1] = target: Fuc(a1-2)[Gal(a1-3)]Gal(b1-3)GlcNAc(b1-6)GalNAc
# Procedure, shortened: (§1)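 The Consortium for Functional Glycomics database supplied 3228 glycan arrays, of which those lacking an available protein sequence were dropped. The binding signal, a within-array Z-score, was averaged across arrays of the same protein sequence and across linkers. Negative scores can be read as non-binding.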
# [2] = target: Fuc(a1-2)[Gal(a1-3)]Gal(b1-4)Glc
# Procedure, shortened: as §1
# [3] = target: Fuc(a1-2)[Gal(a1-3)]Gal(b1-4)GlcNAc
# Procedure, shortened: as §1
# [4] = target: Fuc(a1-2)[Gal(a1-3)]Gal(b1-4)GlcNAc(b1-2)Man
# Procedure, shortened: as §1
# [5] = target: Fuc(a1-2)[Gal(a1-3)]Gal(b1-4)GlcNAc(b1-2)Man(a1-3)[Fuc(a1-2)[Gal(a1-3)]Gal(b1-4)GlcNAc(b1-2)Man(a1-6)]Man(b1-4)GlcNAc(b1-4)GlcNAc
# Procedure, shortened: as §1
# [6] = target: Fuc(a1-2)[Gal(a1-3)]Gal(b1-4)GlcNAc(b1-2)Man(a1-3)[Fuc(a1-2)[Gal(a1-3)]Gal(b1-4)GlcNAc(b1-2)Man(a1-6)]Man(b1-4)GlcNAc(b1-4)[Fuc(a1-6)]GlcNAc
# Procedure, shortened: as §1
# [7] = target: Fuc(a1-2)[Gal(a1-3)]Gal(b1-4)GlcNAc(b1-3)GalNAc
# Procedure, shortened: as §1
# [8] = target: Fuc(a1-2)[Gal(a1-3)]Gal(b1-4)GlcNAc(b1-3)[Fuc(a1-2)[Gal(a1-3)]Gal(b1-4)GlcNAc(b1-6)]GalNAc
# Procedure, shortened: as §1
# [9] = target: Fuc(a1-2)[Gal(a1-3)]Gal(b1-4)GlcNAc(b1-6)GalNAc
# Procedure, shortened: as §1
# [10] = target: Fuc(a1-2)[Gal(a1-3)]Gal(b1-4)[Fuc(a1-3)]Glc
# Procedure, shortened: as §1
# [11] = target: Fuc(a1-2)[Gal(a1-3)]Gal(b1-4)[Fuc(a1-3)]GlcNAc
# Procedure, shortened: as §1
# [12] = target: Fuc(a1-2)[Gal(a1-3)]Gal(b1-4)[Fuc(a1-3)]GlcNAc(b1-3)GalNAc
# Procedure, shortened: as §1
# [13] = target: Fuc(a1-2)[Gal(a1-4)]Gal(b1-4)GlcNAc
# Procedure, shortened: as §1
# [14] = target: Fuc(a1-2)[GalNAc(a1-3)]Gal
# Procedure, shortened: as §1
# [15] = target: Fuc(a1-2)[GalNAc(a1-3)]Gal(b1-3)GalNAc(a1-3)[Fuc(a1-2)]Gal(b1-4)GlcNAc
# Procedure, shortened: as §1
# [16] = target: Fuc(a1-2)[GalNAc(a1-3)]Gal(b1-3)GalNAc(b1-3)Gal(a1-4)Gal(b1-4)Glc
# Procedure, shortened: as §1
# [17] = target: Fuc(a1-2)[GalNAc(a1-3)]Gal(b1-3)GlcNAc
# Procedure, shortened: as §1
# [18] = target: Fuc(a1-2)[GalNAc(a1-3)]Gal(b1-3)GlcNAc(b1-2)Man(a1-3)[Fuc(a1-2)[GalNAc(a1-3)]Gal(b1-3)GlcNAc(b1-2)Man(a1-6)]Man(b1-4)GlcNAc(b1-4)GlcNAc
# Procedure, shortened: as §1
# [19] = target: Fuc(a1-2)[GalNAc(a1-3)]Gal(b1-3)GlcNAc(b1-2)Man(a1-3)[Fuc(a1-2)[GalNAc(a1-3)]Gal(b1-3)GlcNAc(b1-2)Man(a1-6)]Man(b1-4)GlcNAc(b1-4)[Fuc(a1-6)]GlcNAc
# Procedure, shortened: as §1
# [20] = target: Fuc(a1-2)[GalNAc(a1-3)]Gal(b1-3)GlcNAc(b1-3)GalNAc
# Procedure, shortened: as §1
# [21] = target: Fuc(a1-2)[GalNAc(a1-3)]Gal(b1-3)GlcNAc(b1-6)GalNAc
# Procedure, shortened: as §1
# [22] = target: Fuc(a1-2)[GalNAc(a1-3)]Gal(b1-4)Glc
# Procedure, shortened: as §1
# [23] = target: Fuc(a1-2)[GalNAc(a1-3)]Gal(b1-4)GlcNAc
# Procedure, shortened: as §1
# [24] = target: Fuc(a1-2)[GalNAc(a1-3)]Gal(b1-4)GlcNAc(b1-2)Man
# Procedure, shortened: as §1
# [25] = target: Fuc(a1-2)[GalNAc(a1-3)]Gal(b1-4)GlcNAc(b1-2)Man(a1-3)[Fuc(a1-2)[GalNAc(a1-3)]Gal(b1-4)GlcNAc(b1-2)Man(a1-6)]Man(b1-4)GlcNAc(b1-4)GlcNAc
# Procedure, shortened: as §1
# [26] = target: Fuc(a1-2)[GalNAc(a1-3)]Gal(b1-4)GlcNAc(b1-2)Man(a1-3)[Fuc(a1-2)[GalNAc(a1-3)]Gal(b1-4)GlcNAc(b1-2)Man(a1-6)]Man(b1-4)GlcNAc(b1-4)[Fuc(a1-6)]GlcNAc
# Procedure, shortened: as §1
# [27] = target: Fuc(a1-2)[GalNAc(a1-3)]Gal(b1-4)GlcNAc(b1-3)Gal(b1-4)GlcNAc
# Procedure, shortened: as §1
# [28] = target: Fuc(a1-2)[GalNAc(a1-3)]Gal(b1-4)GlcNAc(b1-3)Gal(b1-4)GlcNAc(b1-3)Gal(b1-4)GlcNAc
# Procedure, shortened: as §1
# [29] = target: Fuc(a1-2)[GalNAc(a1-3)]Gal(b1-4)GlcNAc(b1-3)GalNAc
# Procedure, shortened: as §1
# [30] = target: Fuc(a1-2)[GalNAc(a1-3)]Gal(b1-4)GlcNAc(b1-3)[Fuc(a1-2)[GalNAc(a1-3)]Gal(b1-4)GlcNAc(b1-6)]GalNAc
# Procedure, shortened: as §1
# [31] = target: Fuc(a1-2)[GalNAc(a1-3)]Gal(b1-4)GlcNAc(b1-6)GalNAc
# Procedure, shortened: as §1
# [32] = target: Fuc(a1-2)[GalNAc(a1-3)]Gal(b1-4)[Fuc(a1-3)]GlcNAc
# Procedure, shortened: as §1
# [33] = target: Fuc(a1-2)[GalNAc(a1-3)]Gal(b1-4)[Fuc(a1-3)]GlcNAc(b1-3)GalNAc
# Procedure, shortened: as §1
# [34] = target: Fuc(a1-2)[GalNAc(a1-4)]Gal(b1-4)GlcNAc
# Procedure, shortened: as §1
# [35] = target: Fuc(a1-2)[GalNAc(b1-3)]Gal
# Procedure, shortened: as §1
# Fuc(a1-3)GlcNAc = target: Fuc(a1-3)GlcNAc
# Procedure, shortened: as §1
# [36] = target: Fuc(a1-3)[Gal(b1-4)]Glc6S
# Procedure, shortened: as §1
# [37] = target: Fuc(a1-3)[Gal(b1-4)]GlcNAc
# Procedure, shortened: as §1
# [38] = target: Fuc(a1-3)[Gal(b1-4)]GlcNAc(b1-2)Man
# Procedure, shortened: as §1
# [39] = target: Fuc(a1-3)[Gal(b1-4)]GlcNAc(b1-2)Man(a1-3)[Fuc(a1-3)[Gal(b1-4)]GlcNAc(b1-2)Man(a1-6)]Man(b1-4)GlcNAc(b1-4)GlcNAc
# Procedure, shortened: as §1
# [40] = target: Fuc(a1-3)[Gal(b1-4)]GlcNAc(b1-2)Man(a1-3)[Fuc(a1-3)[Gal(b1-4)]GlcNAc(b1-2)Man(a1-6)]Man(b1-4)GlcNAc(b1-4)[Fuc(a1-6)]GlcNAc
# Procedure, shortened: as §1
# [41] = target: Fuc(a1-3)[Gal(b1-4)]GlcNAc(b1-3)Gal(b1-3)[Fuc(a1-4)]GlcNAc
# Procedure, shortened: as §1
# [42] = target: Fuc(a1-3)[Gal(b1-4)]GlcNAc(b1-3)Gal(b1-4)[Fuc(a1-3)]GlcNAc
# Procedure, shortened: as §1
# [43] = target: Fuc(a1-3)[Gal(b1-4)]GlcNAc(b1-3)Gal(b1-4)[Fuc(a1-3)]GlcNAc(b1-3)Gal(b1-4)[Fuc(a1-3)]GlcNAc
# Procedure, shortened: as §1
# [44] = target: Fuc(a1-3)[Gal(b1-4)]GlcNAc(b1-3)GalNAc
# Procedure, shortened: as §1
# [45] = target: Fuc(a1-3)[Gal(b1-4)]GlcNAc(b1-4)Gal(b1-4)[Fuc(a1-3)]GlcNAc
# Procedure, shortened: as §1
# [46] = target: Fuc(a1-3)[Gal(b1-4)]GlcNAc(b1-4)Gal(b1-4)[Fuc(a1-3)]GlcNAc(b1-4)Gal(b1-4)[Fuc(a1-3)]GlcNAc
# Procedure, shortened: as §1
# [47] = target: Fuc(a1-3)[Gal(b1-4)]GlcNAc(b1-6)GalNAc
# Procedure, shortened: as §1
# [48] = target: Fuc(a1-3)[Gal(b1-4)]GlcNAc(b1-6)[Gal(b1-3)GlcNAc(b1-3)]Gal(b1-4)Glc
# Procedure, shortened: as §1
# [49] = target: Fuc(a1-3)[Gal(b1-4)]GlcNAc6S
# Procedure, shortened: as §1
# [50] = target: Fuc(a1-3)[Gal3S(b1-4)]Glc
# Procedure, shortened: as §1
# [51] = target: Fuc(a1-3)[Gal3S(b1-4)]GlcNAc
# Procedure, shortened: as §1
# [52] = target: Fuc(a1-3)[Gal3S(b1-4)]GlcNAc6S
# Procedure, shortened: as §1
# [53] = target: Fuc(a1-3)[GalNAc(b1-4)]GlcNAc
# Procedure, shortened: as §1
# [54] = target: Fuc(a1-3)[GalNAc(b1-4)]GlcNAc6S
# Procedure, shortened: as §1
# Fuc(a1-4)GlcNAc = target: Fuc(a1-4)GlcNAc
# Procedure, shortened: as §1
# Fuc(b1-3)GlcNAc = target: Fuc(b1-3)GlcNAc
# Procedure, shortened: as §1
# Gal(a1-2)Gal = target: Gal(a1-2)Gal
# Procedure, shortened: as §1
# Gal(a1-3)Gal = target: Gal(a1-3)Gal
# Procedure, shortened: as §1
# Gal(a1-3)Gal(b1-3)GlcNAc = target: Gal(a1-3)Gal(b1-3)GlcNAc
# Procedure, shortened: as §1
binder,measurement,setting,value
B1,glycan array binding signal (z-score),[1],-0.15
same,glycan array binding signal (z-score),[2],-0.15
same,glycan array binding signal (z-score),[3],-0.146
same,glycan array binding signal (z-score),[4],-0.122
same,glycan array binding signal (z-score),[5],-0.072
same,glycan array binding signal (z-score),[6],-0.114
same,glycan array binding signal (z-score),[7],-0.175
same,glycan array binding signal (z-score),[8],-0.138
same,glycan array binding signal (z-score),[9],-0.145
same,glycan array binding signal (z-score),[10],-0.16
same,glycan array binding signal (z-score),[11],-0.137
same,glycan array binding signal (z-score),[12],-0.136
same,glycan array binding signal (z-score),[13],-0.155
same,glycan array binding signal (z-score),[14],-0.138
same,glycan array binding signal (z-score),[15],-0.145
same,glycan array binding signal (z-score),[16],-0.112
same,glycan array binding signal (z-score),[17],-0.152
same,glycan array binding signal (z-score),[18],-0.14
same,glycan array binding signal (z-score),[19],-0.157
same,glycan array binding signal (z-score),[20],-0.154
same,glycan array binding signal (z-score),[21],-0.13
same,glycan array binding signal (z-score),[22],-0.16
same,glycan array binding signal (z-score),[23],-0.153
same,glycan array binding signal (z-score),[24],-0.152
same,glycan array binding signal (z-score),[25],-0.141
same,glycan array binding signal (z-score),[26],-0.157
same,glycan array binding signal (z-score),[27],-0.112
same,glycan array binding signal (z-score),[28],-0.112
same,glycan array binding signal (z-score),[29],-0.144
same,glycan array binding signal (z-score),[30],-0.146
same,glycan array binding signal (z-score),[31],-0.152
same,glycan array binding signal (z-score),[32],-0.152
same,glycan array binding signal (z-score),[33],-0.143
same,glycan array binding signal (z-score),[34],-0.144
same,glycan array binding signal (z-score),[35],-0.154
same,glycan array binding signal (z-score),Fuc(a1-3)GlcNAc,-0.144
same,glycan array binding signal (z-score),[36],-0.142
same,glycan array binding signal (z-score),[37],-0.142
same,glycan array binding signal (z-score),[38],-0.164
same,glycan array binding signal (z-score),[39],-0.139
same,glycan array binding signal (z-score),[40],-0.121
same,glycan array binding signal (z-score),[41],-0.163
same,glycan array binding signal (z-score),[42],-0.139
same,glycan array binding signal (z-score),[43],-0.144
same,glycan array binding signal (z-score),[44],-0.142
same,glycan array binding signal (z-score),[45],-0.142
same,glycan array binding signal (z-score),[46],-0.16
same,glycan array binding signal (z-score),[47],-0.134
same,glycan array binding signal (z-score),[48],-0.138
same,glycan array binding signal (z-score),[49],-0.133
same,glycan array binding signal (z-score),[50],-0.148
same,glycan array binding signal (z-score),[51],-0.158
same,glycan array binding signal (z-score),[52],-0.138
same,glycan array binding signal (z-score),[53],-0.111
same,glycan array binding signal (z-score),[54],-0.156
same,glycan array binding signal (z-score),Fuc(a1-4)GlcNAc,-0.157
same,glycan array binding signal (z-score),Fuc(b1-3)GlcNAc,-0.123
same,glycan array binding signal (z-score),Gal(a1-2)Gal,-0.142
same,glycan array binding signal (z-score),Gal(a1-3)Gal,-0.139
same,glycan array binding signal (z-score),Gal(a1-3)Gal(b1-3)GlcNAc,-0.091
